Experimental data taken from the supplement of paper PMC4604168 (melanoma cell lines).
This is one part of the list. Repeats are few or missing, and single values can be far off.

What was measured:
Assay in all cases: cell count relative to DMSO control; melanoma cells; higher = more viable cells
Conditions in all cases: library dose: standard library concentration; 72 h
G361 = system: G361
IPC-298 = system: IPC-298
IST-MEL1 = system: IST-MEL1
LB2518-MEL = system: LB2518-MEL
LOXIMVI = system: LOXIMVI
MEL-HO = system: MEL-HO
MZ2-MEL = system: MZ2-MEL
MeWo = system: MeWo
RPMI7951 = system: RPMI7951
RVH-421 = system: RVH-421
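Further: cells treated in 1,536-well plates, then fixed and DAPI-stained, with nuclei counted from automated high-throughput microscope images.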

Row | SMILES | cell count (G361) [%] | cell count (IPC-298) [%] | cell count (IST-MEL1) [%] | cell count (LB2518-MEL) [%] | cell count (LOXIMVI) [%] | cell count (MEL-HO) [%] | cell count (MZ2-MEL) [%] | cell count (MeWo) [%] | cell count (RPMI7951) [%] | cell count (RVH-421) [%]
1 | O=C(/C=C/c1cccnc1)NCCCCC1CCN(C(=O)c2ccccc2)CC1 + COc1ccc(-c2ccc3c(N4CCOCC4)nc(N4C[C@@H](C)O[C@@H](C)C4)nc3n2)cc1CO [KU0063794] (first compound 0.05 µM, partner dose 0.1 µM) | 1.96 | 22.1 | 65.4 | 63.6 | 50.4 | 45 | 28.4 | 106 | 98 | 48.5
2 | O=C(/C=C/c1cccnc1)NCCCCC1CCN(C(=O)c2ccccc2)CC1 + CO[C@H]1C[C@@H]2CC[C@@H](C)[C@@](O)(O2)C(=O)C(=O)N2CCCC[C@H]2C(=O)O[C@H]([C@H](C)C[C@@H]2CC[C@@H](OCCO)[C@H](OC)C2)CC(=O)[C@H](C)/C=C(\C)[C@@H](O)[C@@H](OC)C(=O)[C@H](C)C[C@H](C)/C=C/C=C/C=C/1C [everolimus] (first compound 0.05 µM, partner dose 0.1 µM) | 7.84 | 29.8 | 56.4 | 67.8 | 73.5 | 42.2 | 33.6 | 82.4 | 64.6 | 42.6
3 | Cc1ccc(Nc2nccc(N(C)c3ccc4c(C)n(C)nc4c3)n2)cc1S(N)(=O)=O [Pazopanib] + CCCS(=O)(=O)Nc1ccc(F)c(C(=O)c2c[nH]c3ncc(Cl)cc23)c1F [PLX4720] (first compound 2 µM, partner dose 0.4 µM) | 67 | 64.9 | 92.4 | 89.6 | 81.7 | 84.5 | 66.4 | 88.5 | 78.3 | 85.1
4 | Cc1ccc(Nc2nccc(N(C)c3ccc4c(C)n(C)nc4c3)n2)cc1S(N)(=O)=O [Pazopanib] + Cc1ccc(NC(=O)c2cccc(N(C)C)c2)cc1NC(=O)c1ccc(O)cc1 [ZM336372] (first compound 2 µM, partner dose 10 µM) | 76.2 | 86.9 | 100 | 82.5 | 76.2 | 92.1 | 84.1 | 74 | 75.4 | 90.1
5 | O=C(/C=C/c1cccnc1)NCCCCC1CCN(C(=O)c2ccccc2)CC1 + CC(=O)O[C@@]12CO[C@@H]1C[C@H](O)[C@@]1(C)C(=O)[C@H](O)C3=C(C)[C@@H](OC(=O)[C@H](O)[C@@H](NC(=O)OC(C)(C)C)c4ccccc4)C[C@@](O)([C@@H](OC(=O)c4ccccc4)[C@H]21)C3(C)C [Docetaxel] (first compound 0.05 µM, partner dose 0.0005 µM) | 3.45 | 24.4 | 36.7 | 33.7 | 80.2 | 29.9 | 28.5 | 27.8 | 21.1 | 91.6
6 | CC1(C)CCC(c2ccc(Cl)cc2)=C(CN2CCN(c3ccc(C(=O)NS(=O)(=O)c4ccc(N[C@H](CCN5CCOCC5)CSc5ccccc5)c(S(=O)(=O)C(F)(F)F)c4)cc3)CC2)C1 + CC1(C)NC(=O)N(c2ccc([N+](=O)[O-])c(C(F)(F)F)c2)C1=O [nilutamide] (first compound 2 µM, partner dose 5 µM) | 78.8 | 90.9 | 71 | 68.3 | 42.5 | 59.4 | 101 | 83.2 | 37.7 | 57.4
7 | CC1(C)CCC(c2ccc(Cl)cc2)=C(CN2CCN(c3ccc(C(=O)NS(=O)(=O)c4ccc(N[C@H](CCN5CCOCC5)CSc5ccccc5)c(S(=O)(=O)C(F)(F)F)c4)cc3)CC2)C1 + N#Cc1c(O)c2c(-c3ccc(-c4ccccc4O)cc3)csc2[nH]c1=O [A769662] (first compound 2 µM, partner dose 10 µM) | 74 | 110 | 70.5 | 72.6 | 42.6 | 50.9 | 85.3 | 80.9 | 46.5 | 69.1
8 | O=C(/C=C/c1cccnc1)NCCCCC1CCN(C(=O)c2ccccc2)CC1 + Cn1cnc2c(F)c(Nc3ccc(Br)cc3Cl)c(C(=O)NOCCO)cc21 [selumetinib] (first compound 0.05 µM, partner dose 0.075 µM) | 5.13 | 38.5 | 60.8 | 39.9 | 105 | 46.5 | 42.5 | 82.1 | 107 | 61.8
9 | CC1(C)CCC(c2ccc(Cl)cc2)=C(CN2CCN(c3ccc(C(=O)NS(=O)(=O)c4ccc(N[C@H](CCN5CCOCC5)CSc5ccccc5)c(S(=O)(=O)C(F)(F)F)c4)cc3)CC2)C1 + CN(C)S(=O)(=O)c1ccc2c(c1)/C(=C/c1cc3c([nH]1)CCCC3)C(=O)N2 [SU6656] (first compound 2 µM, partner dose 2 µM) | 45.6 | 71.6 | 47.4 | 59.6 | 48.8 | 40 | 63 | 61 | 15.4 | 46.3
10 | O=C(/C=C/c1cccnc1)NCCCCC1CCN(C(=O)c2ccccc2)CC1 + CN1CCN(c2ccc3nc(-c4c(N)c5c(F)cccc5[nH]c4=O)[nH]c3c2)CC1 [Dovitinib] (first compound 0.05 µM, partner dose 0.5 µM) | 2.79 | 26.1 | 41.6 | 38.3 | 90.2 | 26.3 | 16.1 | 43.1 | 93.2 | 40.7
11 | O=C(/C=C/c1cccnc1)NCCCCC1CCN(C(=O)c2ccccc2)CC1 + Cn1sc(=O)n(Cc2ccccc2)c1=O [TDZD-8] (first compound 0.05 µM, partner dose 2 µM) | 3.21 | 30.4 | 64.9 | 65.2 | 73.7 | 44.4 | 35.3 | 96.1 | 59.8 | 27.5
